{"source": "paper PMC12820563", "note": "Some of the results follow. The list includes weakly bound sequences.", "data": [{"target": "T1, MBP-FoxP3dN (UniProt Q99JB6)", "T1 sequence": "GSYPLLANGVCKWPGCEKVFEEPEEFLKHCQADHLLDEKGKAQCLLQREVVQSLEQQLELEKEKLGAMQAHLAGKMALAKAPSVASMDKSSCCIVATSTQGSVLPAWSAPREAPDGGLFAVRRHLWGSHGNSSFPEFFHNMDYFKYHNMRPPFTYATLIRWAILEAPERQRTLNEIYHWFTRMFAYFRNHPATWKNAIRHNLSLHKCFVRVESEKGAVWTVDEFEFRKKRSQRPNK", "assay": "PD-seq (MBP pull-down with sequencing)", "settings": "20 mM Tris-HCl pH 7.5, 100 mM NaCl, 1.5 mM MgCl2, 0.4 uM protein, 0.1 uM dsDNA library, 30 min, room temperature, amylose pull-down; high values mean tight binding; double strand, one strand shown", "values": [{"sequence": "GATGATTGTTCTCCCAGCTGATGAATTAGTGCCATCGAGTAAACAAATTTTCCTAATCTTTCTGTTCAAGCGCCATCTAC", "binding signal (RPM ratio (pull-down/input))": 3}, {"sequence": "GATGATTGTTCTCCCAGCTGATGAATTTTCTCTATCGAGTAAACAAATTTTCCTAATCTTTCTGTTCAAGCGCCATCTAC", "binding signal (RPM ratio (pull-down/input))": 0.249}, {"sequence": "GATGATTGTTCTCCCAGCTGATGAATTGACTCTATCGAGTAAACAAATTTTCCTAATCTTTCTGTTCAAGCGCCATCTAC", "binding signal (RPM ratio (pull-down/input))": 0.474}, {"sequence": "GATGATTGTTCTCCCAGCTGATGAATTACTACGCTCGAGTAAACAAATTTTCCTAATCTTTCTGTTCAAGCGCCATCTAC", "binding signal (RPM ratio (pull-down/input))": 0.334}, {"sequence": "GATGATTGTTCTCCCAGCTGATGAATTGTTTCTATCGAGTAAACAAATTTTCCTAATCTTTCTGTTCAAGCGCCATCTAC", "binding signal (RPM ratio (pull-down/input))": 1.25}, {"sequence": "GATGATTGTTCTCCCAGCTGATGAATTTGTGCCTTCGAGTAAACAAATTTTCCTAATCTTTCTGTTCAAGCGCCATCTAC", "binding signal (RPM ratio (pull-down/input))": 4.02}, {"sequence": "GATGATTGTTCTCCCAGCTGATGAATTATCTACCTCGAGTAAACAAATTTTCCTAATCTTTCTGTTCAAGCGCCATCTAC", "binding signal (RPM ratio (pull-down/input))": 0.317}, {"sequence": "GATGATTGTTCTCCCAGCTGATGAATTGTTGTCCTCGAGTAAACAAATTTTCCTAATCTTTCTGTTCAAGCGCCATCTAC", "binding signal (RPM ratio (pull-down/input))": 5.63}, {"sequence": "GATGATTGTTCTCCCAGCTGATGAATTACCCGATTCGAGTAAACAAATTTTCCTAATCTTTCTGTTCAAGCGCCATCTAC", "binding signal (RPM ratio (pull-down/input))": 0.248}, {"sequence": "GATGATTGTTCTCCCAGCTGATGAATTGCCCCTTTCGAGTAAACAAATTTTCCTAATCTTTCTGTTCAAGCGCCATCTAC", "binding signal (RPM ratio (pull-down/input))": 0.522}, {"sequence": "GATGATTGTTCTCCCAGCTGATGAATTCCCGTGATCGAGTAAACAAATTTTCCTAATCTTTCTGTTCAAGCGCCATCTAC", "binding signal (RPM ratio (pull-down/input))": 0.351}, {"sequence": "GATGATTGTTCTCCCAGCTGATGAATTTTTACAATCGAGTAAACAAATTTTCCTAATCTTTCTGTTCAAGCGCCATCTAC", "binding signal (RPM ratio (pull-down/input))": 0.466}, {"sequence": "GATGATTGTTCTCCCAGCTGATGAATTATCTGCATCGAGTAAACAAATTTTCCTAATCTTTCTGTTCAAGCGCCATCTAC", "binding signal (RPM ratio (pull-down/input))": 1.07}, {"sequence": "GATGATTGTTCTCCCAGCTGATGAATTGCCGTTGTCGAGTAAACAAATTTTCCTAATCTTTCTGTTCAAGCGCCATCTAC", "binding signal (RPM ratio (pull-down/input))": 1.03}, {"sequence": "GATGATTGTTCTCCCAGCTGATGAATTGGGATGGTCGAGTAAACAAATTTTCCTAATCTTTCTGTTCAAGCGCCATCTAC", "binding signal (RPM ratio (pull-down/input))": 0.427}, {"sequence": "GATGATTGTTCTCCCAGCTGATGAATTAGGGCTTTCGAGTAAACAAATTTTCCTAATCTTTCTGTTCAAGCGCCATCTAC", "binding signal (RPM ratio (pull-down/input))": 0.869}, {"sequence": "GATGATTGTTCTCCCAGCTGATGAATTGCGCTCATCGAGTAAACAAATTTTCCTAATCTTTCTGTTCAAGCGCCATCTAC", "binding signal (RPM ratio (pull-down/input))": 1.24}, {"sequence": "GATGATTGTTCTCCCAGCTGATGAATTTCATGTTTCGAGTAAACAAATTTTCCTAATCTTTCTGTTCAAGCGCCATCTAC", "binding signal (RPM ratio (pull-down/input))": 0.918}, {"sequence": "GATGATTGTTCTCCCAGCTGATGAATTACACCCCTCGAGTAAACAAATTTTCCTAATCTTTCTGTTCAAGCGCCATCTAC", "binding signal (RPM ratio (pull-down/input))": 0.481}, {"sequence": "GATGATTGTTCTCCCAGCTGATGAATTAAAGTTCTCGAGTAAACAAATTTTCCTAATCTTTCTGTTCAAGCGCCATCTAC", "binding signal (RPM ratio (pull-down/input))": 0.515}, {"sequence": "GATGATTGTTCTCCCAGCTGATGAATTAGTTTAGTCGAGTAAACAAATTTTCCTAATCTTTCTGTTCAAGCGCCATCTAC", "binding signal (RPM ratio (pull-down/input))": 3.51}, {"sequence": "GATGATTGTTCTCCCAGCTGATGAATTCGTACAATCGAGTAAACAAATTTTCCTAATCTTTCTGTTCAAGCGCCATCTAC", "binding signal (RPM ratio (pull-down/input))": 0.39}, {"sequence": "GATGATTGTTCTCCCAGCTGATGAATTCGCAGCTTCGAGTAAACAAATTTTCCTAATCTTTCTGTTCAAGCGCCATCTAC", "binding signal (RPM ratio (pull-down/input))": 0.653}, {"sequence": "GATGATTGTTCTCCCAGCTGATGAATTCGGGGAGTCGAGTAAACAAATTTTCCTAATCTTTCTGTTCAAGCGCCATCTAC", "binding signal (RPM ratio (pull-down/input))": 0.343}, {"sequence": "GATGATTGTTCTCCCAGCTGATGAATTCGGGTTATCGAGTAAACAAATTTTCCTAATCTTTCTGTTCAAGCGCCATCTAC", "binding signal (RPM ratio (pull-down/input))": 0.667}, {"sequence": "GATGATTGTTCTCCCAGCTGATGAATTCTGGTCTTCGAGTAAACAAATTTTCCTAATCTTTCTGTTCAAGCGCCATCTAC", "binding signal (RPM ratio (pull-down/input))": 0.442}, {"sequence": "GATGATTGTTCTCCCAGCTGATGAATTTGTCAAATCGAGTAAACAAATTTTCCTAATCTTTCTGTTCAAGCGCCATCTAC", "binding signal (RPM ratio (pull-down/input))": 0.511}, {"sequence": "GATGATTGTTCTCCCAGCTGATGAATTAGTACTGTCGAGTAAACAAATTTTCCTAATCTTTCTGTTCAAGCGCCATCTAC", "binding signal (RPM ratio (pull-down/input))": 0.836}, {"sequence": "GATGATTGTTCTCCCAGCTGATGAATTCGTGAATTCGAGTAAACAAATTTTCCTAATCTTTCTGTTCAAGCGCCATCTAC", "binding signal (RPM ratio (pull-down/input))": 0.701}, {"sequence": "GATGATTGTTCTCCCAGCTGATGAATTCAATCTGTCGAGTAAACAAATTTTCCTAATCTTTCTGTTCAAGCGCCATCTAC", "binding signal (RPM ratio (pull-down/input))": 0.338}, {"sequence": "GATGATTGTTCTCCCAGCTGATGAATTGCGTCATTCGAGTAAACAAATTTTCCTAATCTTTCTGTTCAAGCGCCATCTAC", "binding signal (RPM ratio (pull-down/input))": 2.09}, {"sequence": "GATGATTGTTCTCCCAGCTGATGAATTGCTATACTCGAGTAAACAAATTTTCCTAATCTTTCTGTTCAAGCGCCATCTAC", "binding signal (RPM ratio (pull-down/input))": 0.737}, {"sequence": "GATGATTGTTCTCCCAGCTGATGAATTTTTCACCTCGAGTAAACAAATTTTCCTAATCTTTCTGTTCAAGCGCCATCTAC", "binding signal (RPM ratio (pull-down/input))": 0.233}, {"sequence": "GATGATTGTTCTCCCAGCTGATGAATTCAACACATCGAGTAAACAAATTTTCCTAATCTTTCTGTTCAAGCGCCATCTAC", "binding signal (RPM ratio (pull-down/input))": 0.764}, {"sequence": "GATGATTGTTCTCCCAGCTGATGAATTCGTAGAATCGAGTAAACAAATTTTCCTAATCTTTCTGTTCAAGCGCCATCTAC", "binding signal (RPM ratio (pull-down/input))": 0.245}, {"sequence": "GATGATTGTTCTCCCAGCTGATGAATTCCCAGGCTCGAGTAAACAAATTTTCCTAATCTTTCTGTTCAAGCGCCATCTAC", "binding signal (RPM ratio (pull-down/input))": 0.229}, {"sequence": "GATGATTGTTCTCCCAGCTGATGAATTCGAAGATTCGAGTAAACAAATTTTCCTAATCTTTCTGTTCAAGCGCCATCTAC", "binding signal (RPM ratio (pull-down/input))": 0.243}, {"sequence": "GATGATTGTTCTCCCAGCTGATGAATTCCCACTGTCGAGTAAACAAATTTTCCTAATCTTTCTGTTCAAGCGCCATCTAC", "binding signal (RPM ratio (pull-down/input))": 0.281}, {"sequence": "GATGATTGTTCTCCCAGCTGATGAATTGGGCTCATCGAGTAAACAAATTTTCCTAATCTTTCTGTTCAAGCGCCATCTAC", "binding signal (RPM ratio (pull-down/input))": 0.463}, {"sequence": "GATGATTGTTCTCCCAGCTGATGAATTCGTGAAATCGAGTAAACAAATTTTCCTAATCTTTCTGTTCAAGCGCCATCTAC", "binding signal (RPM ratio (pull-down/input))": 0.321}]}]}
